Inconclusive means that the source gave no clear call. Such entries were picked first, then a sample of the others. A potency beside an inconclusive call is a rough fit, not a confirmed value. Activity calls are given as the source filed them. Calls follow the shape of the dose curve; as a rule, active = well fitted cell-killing curve with a large enough effect; inconclusive = small, poorly fitted or top-dose-only effect, or effect the other way; inactive = flat fitted curve, though single readings scatter. Non-standard residues stand in square brackets, D forms with d. Residues, ends and D or L forms follow the SMILES beside them. *: point of attachment. Dolaproine = CO[C@@H]([C@@H]1CCCN1)[C@@H](C)C(=O)O; Dil = CC[C@H](C)[C@H](NC)[C@@H](CC(=O)O)OC; Doe = c1ccc(C[C@H](N*)c2nccs2)cc1; Aib = CC(C)(N)C(=O)O
Each compound was assayed on SKOV3 (assay: Primary qHTS to identify gynecologic anti-cancer compounds using libraries of approved drugs and bioactive compounds (AID 1345084; also: nearly all actives have a fitted effect of over 55% in size)). Conditions: Gynecologic cancer cell panel viability, ATPlite luminescence, 48 h; series mostly up to 57.5 µM; activity change, negative = cytotoxicity: at the top concentration.
Method in brief: (§1)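 Cells, 1,000 per well, were allowed to settle for 16 h at 37 C before compound addition. Five concentrations were tested for 48 h, and viability was read by ATPlite luminescence after 15 min at room temperature.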
% is scaled to controls: 0 for no effect and ±100 for the full control effect; potency is read from the fitted curve at half-maximal effect; tags tell the direction and shape of the fitted curve.

| Structure (SMILES) | Potency | activity change, negative = cytotoxicity |
| --- | --- | --- |
| COC1C(O)C(OC2CCC3(C=O)C(CCC4C3CCC3(C)C(C5=CC(=O)OC5)CCC43O)C2)OC(C)C1OC1OC(CO)C(O)C(O)C1O (centres undefined) | active: 0.708 µM |  |
| COc1cc(CC(C)N)cc(OC)c1OC (centres undefined) | inconclusive: 2.82 µM [cytotoxic, full curve, poor fit] |  |
| C/C=C(/C)C(=O)O[C@H]1[C@@H]2[C@H](C)C(=O)O[C@@H]2C[C@@H](C)[C@@H]2C=CC(=O)[C@]21C | inconclusive: 0.398 µM |  |
| CC1=CC(=O)[C@@H](O)[C@@]2(C)C1C[C@H]1OC(=O)[C@H](O)[C@@]3(O)[C@@H](C)[C@@H](O)[C@H](O)C2[C@@]13C (some centres undefined) | inconclusive: 7.08 µM [cytotoxic, partial curve, poor fit] |  |
| C[C@@H]1Cc2c(Cl)cc(C(=O)N[C@@H](Cc3ccccc3)C(=O)O)c(O)c2C(=O)O1 |  | inactive: -17.3% [at 38.5 µM] |
| CN(C(=O)CN1C(=O)COc2cc(Cl)c(Cl)cc21)[C@@H](CN1CCCC1)c1ccc(-c2cccc(C(N)=O)c2)cc1 | inconclusive: 31.6 µM [cytotoxic, single point] |  |
| CO[C@@H]1[C@H](O)[C@@H](O[C@@H]2C[C@H]3CC[C@@H]4C(CC[C@]5(C)[C@@H](C6=CC(=O)OC6)CC[C@]45O)[C@@]3(C)[C@H](O)C2)O[C@H](C)[C@@H]1O (some centres undefined) | active: 0.251 µM |  |
| COc1cccc2c1C(=O)c1c(O)c3c(c(O)c1C2=O)C[C@@](O)(C(=O)CO)CC3OC1CC(N2CCOC(OC)C2)C(O)C(C)O1 (some centres undefined) | inconclusive: 0.0891 µM |  |
| C[C@]12CCC(=O)C=C1CC[C@@H]1[C@H]3CC[C@](C)(O)[C@@]3(C)CC[C@@H]12 | inconclusive: 8.91 µM [cytotoxic, single point] |  |
| CC[C@H](C)[C@H](NC(=O)[C@H]1CCCCN1C)C(=O)N(COC(=O)CC(C)C)[C@H](C[C@@H](OC(C)=O)c1nc(C(=O)N[C@@H](Cc2ccc(O)cc2)C[C@H](C)C(=O)O)cs1)C(C)C | inconclusive: 0.0329 µM |  |
| CCOC(=O)c1ncn2c1CN(C)C(=O)c1c(I)cccc1-2 | inconclusive: 0.891 µM [rising, full curve, poor fit] |  |
| CC[n+]1c(-c2ccccc2)c2cc(N)ccc2c2ccc(N)cc21 | inconclusive: 39.8 µM [cytotoxic, single point] |  |
| COC1C(O)C(C)OC(OC2C(CO)O[C@@H](O[C@@H]3CC4CCC5C(CC[C@]6(C)[C@@H](C7=CC(=O)OC7)CC[C@]56O)[C@@]4(C)[C@H](OC(C)=O)C3)C(O)C2O)C1O (some centres undefined) | inconclusive: 7.94 µM [cytotoxic, single point] |  |
| COC1CC(O[C@H]2CC[C@]3(C)C4CC[C@]5(C)[C@@H](C6=CC(=O)OC6)[C@@H](OC(C)=O)C[C@]5(O)C4CC[C@@H]3C2)OC(C)C1O[C@@H]1O[C@H](CO)[C@@H](O)[C@H](O)[C@H]1O (some centres undefined) | active: 0.891 µM |  |
| CC1=C[C@H]2O[C@@H]3[C@H](O)[C@@H](O)[C@](C)([C@@]2(CO)C[C@@H]1O)[C@]31CO1 | inconclusive: 12.6 µM [cytotoxic, partial curve, poor fit] |  |
| CC[C@@H]1C[C@H]2CC[C@H](O2)[C@H](C)C(=O)O[C@@H](C)C[C@@H]2CC[C@@H](O2)[C@@H](C)C(=O)O[C@H](CC)C[C@H]2CC[C@H](O2)[C@H](C)C(=O)O[C@@H](C)C[C@@H]2CC[C@@H](O2)[C@@H](C)C(=O)O1 | inconclusive: 0.447 µM [cytotoxic, full curve, poor fit] |  |
| CO[C@H]1[C@H](O)[C@H](O[C@H]2CC[C@]3(C)C4CC[C@]5(C)[C@H](C6=CC(=O)OC6)CC[C@]5(O)C4CC[C@@H]3C2)O[C@@H](C)[C@@H]1O (some centres undefined) | inconclusive: 0.141 µM [cytotoxic, full curve, poor fit] |  |
| O=C1CN=C(c2cccc(Br)c2)c2oc3ccccc3c2N1 | inconclusive: 39.8 µM [cytotoxic, single point] |  |
| C=C(C)[C@@]12O[C@@H]1[C@@]1(C)C(=CC2=O)CC[C@@H](OC(C)=O)[C@@H]1C | active: 3.16 µM |  |

These compounds were tested on Tov-21-G in the same assay as above. Conditions: Gynecologic cancer cell panel viability, ATPlite luminescence, 48 h; series mostly up to 57.5 µM; activity change, negative = cytotoxicity: at the top concentration.
Method in brief: as §1

| Structure (SMILES) | Potency | activity change, negative = cytotoxicity |
| --- | --- | --- |
| C=C1C[C@@H]2[C@H](CC[C@]3(C)C(=O)CC[C@@H]23)[C@@]2(C)C=CC(=O)C=C12 | inconclusive: 39.8 µM [cytotoxic, single point] |  |
| CC[C@H]1CN2CC[C@H]1C[C@@H]2[C@@H](O)c1ccnc2ccc(OC)cc12 |  | inactive: 3.24% [at 38.5 µM] |
| CC[C@H](C)[C@@H]([C@@H](CC(=O)N1CCC[C@H]1[C@H](OC)[C@@H](C)C(=O)N[C@@H](Cc1ccccc1)c1nccs1)OC)N(C)C(=O)[C@@H](NC(=O)C(C)(C)N)C(C)C (H-[Aib]V[Dil][Dolaproine]-Doe) | inconclusive: 112 µM |  |
| N#CC(C#N)=Cc1ccc(O)c(O)c1 | inconclusive: 25.1 µM [cytotoxic, single point] |  |
| C=C1C(=O)CC2OC2(C)CC2OC(=O)C(=C)C2C(O)C1OC(=O)/C(C)=C\C (centres undefined) | inconclusive: 8.91 µM [cytotoxic, partial curve, poor fit] |  |
| C/C=C(\C)C(=O)O[C@H]1CC2C(=C1C)[C@H]1OC(=O)[C@](C)(O)[C@]1(O)[C@H](OC(=O)CCC)C[C@@]2(C)OC(C)=O (some centres undefined) | inconclusive: 14.1 µM [cytotoxic, partial curve, poor fit] |  |
| CCCCCCCCc1ccc(O)cc1 | inconclusive: 35.5 µM [cytotoxic, single point] |  |
| CC1(C)C(C=C(Cl)Cl)C1C(=O)OC(C#N)c1cccc(Oc2ccccc2)c1 (centres undefined) |  | inactive: 3.18% |
| O=[N+]([O-])c1ccc([As](=O)(O)O)cc1 |  | inactive: -0.75% |
| CCOCCOC(C)=O |  | inactive: 2.09% [at 116 µM] |

— PubChem BioAssay (NCATS)
